Data from paper PMC6919601, “Identification of Plasmodium dipeptidyl aminopeptidase allosteric inhibitors by high throughput screening” (PLoS ONE, 2019).
In all, about 110,000 compounds went through this assay and about 230 (0.21%) showed an effect of 50% or more. This is one part of the list.

These molecules were tested against DPAP1 (Plasmodium falciparum, UniProt Q8IIJ9) (assay: primary screen, percent inhibition; read by cleavage of a fluorogenic dipeptide substrate; higher = more effect of the substance).
Parameters: species or system P. falciparum D10 trophozoite lysates; single well
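Further: 30 min substrate incubation versus DMSO and 10 µM JCP410 controls.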

Sequence of DPAP1 (Q8IIJ9 whole entry, looked up): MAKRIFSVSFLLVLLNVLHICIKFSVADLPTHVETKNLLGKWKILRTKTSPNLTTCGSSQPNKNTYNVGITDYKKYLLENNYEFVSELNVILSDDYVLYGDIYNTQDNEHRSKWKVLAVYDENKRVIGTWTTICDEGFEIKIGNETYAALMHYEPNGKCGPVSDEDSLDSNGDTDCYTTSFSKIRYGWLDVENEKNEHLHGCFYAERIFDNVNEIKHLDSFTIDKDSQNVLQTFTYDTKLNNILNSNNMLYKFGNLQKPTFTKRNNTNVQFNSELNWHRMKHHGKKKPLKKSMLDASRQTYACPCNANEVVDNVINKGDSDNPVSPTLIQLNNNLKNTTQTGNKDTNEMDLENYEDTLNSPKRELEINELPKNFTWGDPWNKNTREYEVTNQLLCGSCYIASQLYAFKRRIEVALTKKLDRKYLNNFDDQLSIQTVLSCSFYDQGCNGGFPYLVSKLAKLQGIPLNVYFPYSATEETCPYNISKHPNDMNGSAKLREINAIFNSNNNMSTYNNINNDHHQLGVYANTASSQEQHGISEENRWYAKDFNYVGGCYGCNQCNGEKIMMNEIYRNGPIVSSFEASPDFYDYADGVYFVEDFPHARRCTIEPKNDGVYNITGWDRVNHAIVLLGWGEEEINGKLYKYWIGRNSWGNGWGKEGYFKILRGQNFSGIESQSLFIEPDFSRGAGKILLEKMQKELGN

Compared with `Cc1ccc(C(=O)N(Cc2ccccc2)c2ccccn2)cc1`, `Cc1ccccc1NC(=O)CN(c1ccc(Oc2ccccc2)cc1)S(C)(=O)=O` is higher in “% Inhibition @ 10 uM” value: -4.95% for the first, -3.78% for the second.

First: N#Cc1c(NC(=O)c2cccnc2)sc2c1CCCCCC2
Second: NC(=O)c1c(NC(=O)c2cccnc2Cl)sc2c1CCCCC2
The “% Inhibition @ 10 uM” value of the first is higher: -0.725% for the first, -2.53% for the second.

Going from `COc1cccc(C2c3c(oc4ccccc4c3=O)C(=O)N2c2nccs2)c1` (stereo not drawn) to `COc1cc(C2c3c(oc4ccccc4c3=O)C(=O)N2c2nnc(C)s2)ccc1O` (stereo not drawn), the “% Inhibition @ 10 uM” value falls from -6.3% to -7.38%.

Going from `Oc1ccccc1-c1cc(-c2ccco2)[nH]n1` to `Oc1nc2ccc(Cl)cc2c(O)c1Cc1ccccc1`, the “% Inhibition @ 10 uM” value rises from 3.04% to 5.81%.

First: COc1ccccc1CNc1nc2ccccc2n2cnnc12
Second: OCCCNc1c2ccccc2nc2ccccc12
The “% Inhibition @ 10 uM” value of the first is higher: 2.6% for the first, -5.38% for the second.

Compared with `COc1cnn(-c2ccccc2)c(=O)c1S`, `CCCNC(=O)c1cnn(-c2ccccc2)c1C1CCN(C(=O)OC(C)(C)C)CC1` is lower in “% Inhibition @ 10 uM” value: 8.63% for the first, 0.886% for the second.

Going from `Cc1ccc(CS(=O)Cc2ccc(C(=O)NCCC3=CCCCC3)o2)cc1` (stereo not drawn) to `Cc1ccc(S(=O)(=O)Nc2ccnc(C(=O)NC3CCCCC3)c2)cc1`, the “% Inhibition @ 10 uM” value falls from 3.36% to -4.61%.

First: O=C1C2C3C=CC(C3)C2C(=O)N1c1ccc(Cl)cc1O (stereo not drawn)
Second: Cc1ccc(OCC(=O)Nc2ccccc2O)c(C)c1
The “% Inhibition @ 10 uM” value of the first is lower: -0.968% for the first, 0.795% for the second.

Going from `CCOc1ccc(CCNCc2cccn2-c2nnc(N3CCN(C4CCCCC4)CC3)s2)cc1` to `COc1ccc(CC(=O)N2CCN(c3ccccc3OC)CC2)cc1`, the “% Inhibition @ 10 uM” value falls from 3.11% to 1.08%.

Compared with `CC(C)(C)C1CCc2c(sc3nnn(CC(=O)NCc4ccccc4)c(=O)c23)C1` (stereo not drawn), `CC(C)CNC(=O)Cn1nnc2sc3c(c2c1=O)CCC(C(C)(C)C)C3` (stereo not drawn) is lower in “% Inhibition @ 10 uM” value: -0.946% for the first, -4.54% for the second.

Going from `CCN1CCN(Cc2c(F)cccc2F)CC1` to `Cc1ccccc1CN1CCN(Cc2ccc3c(c2)OCO3)CC1`, the “% Inhibition @ 10 uM” value falls from -0.0494% to -0.127%.

First: C[C@@](Cc1cc2ccccc2[nH]1)(NC(=O)OCc1ccccc1)C(=O)NCC#N
Second: O=C(CSc1nnc(CNC(=O)c2ccccc2F)n1-c1ccccc1)Nc1nccs1
The “% Inhibition @ 10 uM” value of the first is higher: 1.61% for the first, -1.3% for the second.

Going from `O=C(CCn1cccn1)NC1CCN(Cc2ccccc2)CC1` to `O=C(NCCCN1CCOCC1)c1ccccc1`, the “% Inhibition @ 10 uM” value rises from -1.74% to 1.02%.

`CCN(CC)CCCOc1ccc([N+](=O)[O-])cc1` and `CCN(CC)CCCCOc1ccccc1C(C)(C)C` are the same in “% Inhibition @ 10 uM” value: 1.35% for the first, 1.35% for the second.

Going from `COc1ccc(/N=C(\C)C2=C(O)c3ccccc3C2=O)cc1` to `COc1ccc(-c2nn(-c3nc4ccccc4s3)c(O)c2/C=N/CC2CCCO2)cc1` (stereo not drawn), the “% Inhibition @ 10 uM” value rises from -2.8% to 4.18%.

First: COc1cccc(NC(=O)C2=C(C)NC(=O)NC2c2cc(OC)ccc2OC)c1 (stereo not drawn)
Second: COc1ccc(OC)c(C2C3=C(O)CC(C)(C)CC3=NC(C)=C2C(=O)Nc2ccccn2)c1 (stereo not drawn)
The “% Inhibition @ 10 uM” value of the first is lower: -1.73% for the first, 4.3% for the second.

Going from `CC1CCCC(NC(=O)Nc2cn(C)c(=O)c3ccccc23)C1C` (stereo not drawn) to `Cc1ccc(-c2nn(CCC(=O)N3CCN(C)CC3)c(=O)c3ccccc23)cc1`, the “% Inhibition @ 10 uM” value falls from 9.85% to 2.25%.

Compared with `COc1cc(NC(=O)c2ccc(C(C)(C)C)cc2)c(OC)cc1NC(C)=O`, `COc1cc(OC)cc(C(=O)N2c3ccc(F)cc3CCC2C)c1` (stereo not drawn) is lower in “% Inhibition @ 10 uM” value: 24.5% for the first, -1.44% for the second.

First: CN(C)C(=S)SCc1cc(=O)c(O)c(Br)o1
Second: COc1ccc(CCN2/C(=N/C(=O)CCC(=O)O)SC3CS(=O)(=O)CC32)cc1OC (stereo not drawn)
The “% Inhibition @ 10 uM” value of the first is higher: 0.273% for the first, -3.14% for the second.

Going from `CC(C)(C)c1ccc(OCC(O)CN2CCN(Cc3ccc4c(c3)OCO4)CC2)cc1` (stereo not drawn) to `O=C(Cn1c2ccccc2c2cnnc(O)c21)NCc1ccc2c(c1)OCO2`, the “% Inhibition @ 10 uM” value falls from -2.86% to -5.87%.

First: CC(C)(C)c1[nH]nc2c1C(c1cccc(F)c1)C(C#N)=C(N)O2 (stereo not drawn)
Second: Cc1ccc(-c2cc(C(F)F)n3ncc(C(=O)N4CC5(C)CC4CC(C)(C)C5)c3n2)cc1 (stereo not drawn)
The “% Inhibition @ 10 uM” value of the first is lower: -4.03% for the first, -2.75% for the second.

Compared with `N#Cc1cc2c(=O)n3ccccc3nc2n(CCN2CCOCC2)c1=O`, `O=C1CCCN1CCCn1cnc2c3ccccc3nc-2c1O` is higher in “% Inhibition @ 10 uM” value: -2.28% for the first, 1.64% for the second.

First: CC(=O)c1ccc(-c2ccc(/C=c3\sc4nc(-c5ccco5)nn4c3=O)o2)cc1
Second: Cc1cc(C)c(N2C(=O)c3ccc(C(=O)NCc4cccnc4)cc3C2=O)c(C)c1
The “% Inhibition @ 10 uM” value of the first is higher: 1.62% for the first, -1.57% for the second.

Compared with `Cc1ccc(S(=O)(=O)NCC(=O)N2CCCCC2)cc1`, `CCOC(=O)N1CCC(N2CCN(C(C)=O)CC2)CC1` is lower in “% Inhibition @ 10 uM” value: 1.84% for the first, -3.35% for the second.

Compared with `CC1(C)CC(=O)CC(c2ccccc2)(C(F)(F)F)O1` (stereo not drawn), `CCOc1ccc2nc(NC(=O)c3ccco3)sc2c1` is lower in “% Inhibition @ 10 uM” value: 4.51% for the first, -0.25% for the second.

For `CCCCN(CCNC(=O)c1noc2c1COc1ccc(C)cc1-2)Cc1ccco1`, the “% Inhibition @ 10 uM” value was -7.84%.
